The text below walks through data of PubChem BioAssay AID1956 (SRMLSC, 2009).

The list shows a part of the results. Shown are side measurements of this screen, not its main read-out; they come without a call.

This test can be described thus: compounds boosting herpes simplex virus growth – fold increase, host cell viability (AID 1956). Further: tested in PC3 cells. The conditions noted are these: HSV replication augmentation in cells; fold increase: measured here: primary screen fold increase 10 uM, at 10 µM, stronger effect = higher value; viability: measured here: host cell viability series, at 25 µM, stronger effect = lower value.
Consider `Cc1ccc(S(=O)(=O)N2CCN(C(C)C)CC2)cc1`, for which the fold increase turned out to be 1.36 and the viability was found to be 90%.

In the case of `CC(C)(C)c1cc[n+](-c2[nH]c(=O)sc2/C=N/NC([S-])=Nc2ccccc2)cc1`, the fold increase was found to be 2.28 and the viability was 93.9%. Taken in the same sequence, the figures for `O=C(COC(=O)c1ccc(Br)o1)NCC1CCCO1` (stereo not drawn) were 1.34 and 95.9%. Taken in the same sequence, the figures for `O=c1cc(-c2ccccc2)nc2cc(-c3ccco3)[nH]n12` were 1.49 and 95.3%. For `N#C/C(=C/c1ccc(-c2ccccc2)o1)c1nc(-c2cccs2)cs1`, the fold increase is 7.74. In the case of `CCNC(=S)N/N=C/c1sc(N2CCCCC2)nc1-c1cccs1`, the fold increase was 1.6 and the viability turned out to be 92.2%.

With `Cc1cc(O)c(C(C)C)cc1NC(=O)c1cccc(Cl)c1`, the fold increase was 1.41 and the viability stood at 91.9%.

On to `O=C(Nc1cccc(Br)c1)c1ccccc1-c1ccccc1`, for which the fold increase came to 1.33 and the viability is 95.2%. The molecule `CCn1c(-c2csc(-c3ccccc3)n2)n[nH]c1=S` gave a fold increase of 1.19.

Consider `CN(C)c1ccc(C(c2ccc(N(C)C)cc2)c2ccc([N+](=O)[O-])cc2)cc1`, for which the fold increase is 1.35 and the viability is 88.1%.

Take `C(=N\n1cnnc1)/c1cccn1-c1ccccc1`: the fold increase came to 1.41 and the viability is 98.5%. Regarding `Cn1c(=O)oc2cc(S(=O)(=O)N3CCN(c4ccc(F)cc4)CC3)ccc21`, the fold increase came out at 1.48 and the viability worked out at 98%. On to `CS(=O)(=O)N(CC(=O)Nc1ccccc1-c1ccccc1)c1ccc(F)cc1`, for which the fold increase is 1.51 and the viability was 97.3%. For the molecule `N#C/C(=C/c1ccc(-c2ccc(S(N)(=O)=O)cc2)o1)c1nc2ccccc2s1`, the fold increase was determined as 8.07 and the viability was 69.6%. `Nc1ccc(C(=O)OCC(=O)NC2CCCc3ccccc32)cc1[N+](=O)[O-]` (stereo not drawn) returned a fold increase of 1.17. For `Cc1c(C(=O)O)cccc1-n1c(C)cc(/C=N/Nc2ccc([N+](=O)[O-])cn2)c1C`, the fold increase came out at 1.34 and the viability worked out at 95.6%. With `CCCCc1ccc(/C=C2\C(=O)c3ccccc3C(O)=C2C(=O)OCC)cc1`, the fold increase was found to be 2.31 and the viability was determined as 89.7%. For `Cn1cccc1Cc1nnc(SCC(=O)N2CCOCC2)n1CCc1ccccc1`, the fold increase was found to be 1.37 and the viability amounted to 95.1%. Taken in the same sequence, the figures for `O=C(O)c1cc2c(ccc3ccccc32)oc1=O` were 1.33 and 106%. Turning to `C1=C(c2ccc(-c3ccccc3)cc2)Nc2ncnn2C1c1ccco1` (stereo not drawn), the fold increase is 5.35. In the case of `Nc1cc2nc3ccccc3oc-2cc1=O`, the fold increase was 1.91 and the viability was determined as 80.2%. The matching figures for `CN(c1ncc(C(F)(F)F)cc1Cl)N1C(=O)c2cccc([N+](=O)[O-])c2C1=O`: 1.38 and 93.8%. Taken in the same sequence, the figures for `CC(C)c1ccc(N2C(=O)/C(=C/N(C)C)SC2=S)cc1` were 1.37 and 89.6%. Taken in the same sequence, the figures for `COc1cc(/C=C2\SC(=S)N(Nc3ncc(C(F)(F)F)cc3Cl)C2=O)ccc1O` were 4.08 and 87.1%.

As for `CC(=O)c1cc(OC(=O)c2ccncc2)ccc1OC(=O)c1ccncc1`, the fold increase was 1.54 and the viability amounted to 98.6%. As for `O=[n+]1c2c(n([O-])c3cc(F)c(N4CCCC4)cc31)CCC2`, the fold increase amounted to 1.94 and the viability was 99.2%. `CC1CCN(C(=S)c2cn(Cc3ccc(F)cc3)c3ccccc23)CC1` showed a fold increase of 1.28.

Consider `C=CCn1c(NC(=O)c2ccccc2Cl)c(C#N)c2nc3ccccc3nc21`, for which the fold increase turned out to be 1.45 and the viability was 89.1%. As to `Cc1cc(O)ccc1Nc1nc2ccccc2nc1Nc1ccc(O)cc1C`, the fold increase was determined as 1.99 and the viability was determined as 90.2%.

In the case of `Cn1c(=O)c(Nc2ccc(Cl)cc2)c2c3c(cccc31)C(=O)c1ccccc1-2`, the fold increase stood at 4.76.

`O=C(NCC1CCCO1)c1ccc(CS(=O)(=O)c2c(Cl)cccc2Cl)o1` (stereo not drawn): the fold increase worked out at 1.37 and the viability stood at 92.3%.

Turning to `O=C1NCCCC2c3cc(O)c4ccccc4c3OC12N1CCCCC1` (stereo not drawn), the fold increase is 1.25 and the viability stood at 16.9%. As for `Cc1cccc(/N=C/c2c(O)cc(C)oc2=O)n1`, the fold increase worked out at 2.4 and the viability was 94.7%.

With `COC(=O)c1c(C)[nH]c(C(=O)CC#N)c1C`, the fold increase was determined as 1.45 and the viability turned out to be 97.2%. For `CCOn1c(=O)c[n+]([O-])c2ccccc21`, the fold increase was determined as 2.98 and the viability is 93.5%.

Regarding `Cc1cc(C)n2nc(S(=O)(=O)NCCc3ccccc3)nc2n1`, the fold increase came to 1.49 and the viability turned out to be 97.8%. On to `O=C1CCC/C(=N/NC(=O)c2sc3ccccc3c2Cl)C1`, for which the fold increase stood at 2.45 and the viability was 102%.

`CCCCc1nnc(NC(=O)C(C)Sc2nc(C)cc(=O)[nH]2)s1` (stereo not drawn) showed a fold increase of 1.32. In the case of `CCN(CC)c1ccc(/C=C(/C#N)C(=O)NCc2ccccc2)o1`, the fold increase was 6.13 and the viability stood at 92.1%. The matching figures for `CC1=CC(C)(C)Nc2ccc(OC(=O)CN3C(=O)C4CCCCC4C3=O)cc21` (stereo not drawn): 1.66 and 52.5%. Taken in the same sequence, the figures for `CCOC(=O)/C(C#N)=C/C=C1\C=Cc2ccccc2N1CC` were 1.73 and 96.8%. Take `Cc1cc(C(=O)COc2cccc3cccnc23)c(C)n1C`: the fold increase came out at 1.35 and the viability came out at 90.5%. Turning to `CN1CCN(CC(=O)N2c3ccc(S(=O)(=O)NCCNC(=O)OC(C)(C)C)cc3C(=O)Nc3cccnc32)CC1`, the fold increase was 1.42 and the viability amounted to 93.5%. `Cc1ccc(/C=C2/NC(=O)N(Cc3ccccc3F)C2=O)s1`: the fold increase came out at 1.43 and the viability is 84%. On to `COc1ccc(OCC(=O)Nc2cc(-c3nn4c(C)nnc4s3)ccc2C)cc1`, for which the fold increase was 1.5 and the viability was determined as 104%. `Cn1c(CN2CCOCC2)nnc1SCC(=O)Nc1ccc2c(c1)OCCO2`: the fold increase was 1.33 and the viability came out at 94.8%.

As to `COCCCNC(=O)/C=C/c1ccc(Cl)cc1`, the fold increase amounted to 1.5 and the viability was 106%. Taken in the same sequence, the figures for `CC1(C)Cc2c(c(-c3ccco3)[nH]c(=O)c2C#N)CS1` were 1.48 and 96.4%.

`Cc1ccccc1C(=O)NNc1ccc([N+](=O)[O-])cc1`: the fold increase turned out to be 1.35 and the viability was 97.4%. The matching figures for `CCn1cc(C(=O)O)c(=O)c2cnc(N3CCN(C(=S)NC(=O)c4ccc(Br)cc4)CC3)nc21`: 1.44 and 97.3%. Taken in the same sequence, the figures for `N#CC1=C(N)C(C#N)(C#N)[C@H](c2cccnc2)[C@H]2CN(C(=O)OCc3ccccc3)CC=C12` were 1.4 and 88.2%. Taken in the same sequence, the figures for `CCOC(=O)c1c(NC(=O)C2COc3ccccc3O2)sc2c1CCN(Cc1ccccc1)C2` (stereo not drawn) were 1.33 and 75.4%.

With `C=CCn1c(=S)[nH]c2ccccc2c1=O`, the fold increase was found to be 1.13. With `O=C(N/N=C/c1cc(Br)c(Br)o1)c1cccnc1`, the fold increase was determined as 1.4 and the viability is 90.8%. `O=C1N/C(=N\S(=O)(=O)Cc2ccccc2)S/C1=C/c1cc([N+](=O)[O-])ccc1O`: the fold increase worked out at 2.59 and the viability came to 93.5%. As to `CCN1C(=O)/C(=C/C=C2\N(CC)c3cc(S(=O)(=O)N(C)C)ccc3N2c2ccccc2)SC1=S`, the fold increase was 3.25 and the viability worked out at 74.1%.

As to `Cc1ccc(S(=O)(=O)N2CCOCC2)cc1C(=O)Nc1ccc(C(N)=O)cc1`, the fold increase was determined as 1.37 and the viability was found to be 100%. Take `N#C/C(=C(/O)CSc1ccccn1)c1nc2ccccc2s1`: the fold increase worked out at 1.4 and the viability is 101%. For the molecule `COc1ccc(-n2c(SCC(=O)O)nc3sc4c(c3c2=O)CCC4)cc1`, the fold increase turned out to be 1.32. As to `COc1ccc2[nH]c(C)c(CCN(Cc3cccs3)C(=S)Nc3ccccc3OC)c2c1`, the fold increase is 1.41 and the viability came to 104%. On to `CC(=O)Nc1ccc(S(=O)(=O)Nc2cc(-c3ccccc3)nn2C)cc1`, for which the fold increase came out at 1.33 and the viability worked out at 95.5%. Turning to `COCCCn1c(O)c(/C=C2\N=C(C#N)C(=Nc3ccc(C)cc3)O2)sc1=S`, the fold increase was determined as 1.48. On to `CC(=Nc1ccccc1O)c1sc2ccccc2c1O`, for which the fold increase turned out to be 3.79 and the viability came to 98.5%. Taken in the same sequence, the figures for `COc1ccc(Nc2ccc(S(=O)(=O)N3CCCCC3)cc2[N+](=O)[O-])cc1Cl` were 1.4 and 83.2%. `O=C(CCc1ccccc1)NCCSCc1c(F)cccc1Cl`: the fold increase was 1.37 and the viability is 103%. On to `O=C(O)Cc1sc(N/N=C\c2ccncc2)nc1-c1ccccc1`, for which the fold increase amounted to 1.88 and the viability was 95.8%. With `Cc1ccc(SCc2cn3c(C)cc(C)nc3n2)cc1`, the fold increase was 1.4 and the viability was 95%. As for `O=C1CCCc2c1nc(-c1ccc(F)cc1)n2O`, the fold increase worked out at 1.37 and the viability stood at 99.7%.

`COc1cc(/C=C2/SC(=S)N(c3c(C)n(C)n(-c4ccccc4)c3=O)C2=O)ccc1O`: the fold increase was 2.2 and the viability turned out to be 100%. Molecule `CN1C2CCC1/C(=C/c1cccn1C)C(=O)/C2=C\c1cccn1C` returned a fold increase of 5.95.

Consider `N#C/C(=C/c1ccncc1)c1nc2ccccc2s1`, for which the fold increase is 4.46 and the viability is 104%. With `Cc1[nH]c2ccccc2c1Cc1nnc(SCc2ccccc2)o1`, the fold increase was determined as 1.35 and the viability stood at 97.4%.

Take `COc1ccc2nc(Nc3sc4c(c3C(N)=O)CCCC4)sc2c1`: the fold increase is 1.55 and the viability is 99.2%. The matching figures for `Nc1c(C(=O)c2ccccc2)sc2nsc(SCCN3CCCC3)c12`: 1.78 and 47.3%. Taken in the same sequence, the figures for `CCOCCCn1c(C)nc2c(c1=O)c1nc3ccccc3nc1n2-c1ccc(C)cc1` were 1.42 and 98.1%. The matching figures for `CCN1C(=O)CS/C1=C(\C#N)S(=O)(=O)c1ccccc1`: 1.35 and 98.1%. With `CN(C)c1ccc(/C=C2\SC(=S)N(Nc3ncc(C(F)(F)F)cc3Cl)C2=O)cc1`, the fold increase turned out to be 1.92 and the viability is 98.5%. Taken in the same sequence, the figures for `O=C(COc1ccccc1)N1CCN(S(=O)(=O)c2ccc(Cl)cc2)CC1` were 1.42 and 97.6%.

Take `Cc1ccc(N2C(=O)c3cccc4c(N5CCN(C)CC5)ccc(c34)C2=O)c2cccnc12`: the fold increase came out at 1.8 and the viability came out at 75.3%. In turn, `O=C(C1=NN(c2ccccc2)C2C(=O)N(c3ccccc3)C(=O)C12)c1ccccc1` (stereo not drawn) showed a fold increase of 3.38. On the same count and under the same terms, for `Cc1c(Nc2c3c(c(C#N)c4nc5ccccc5n24)CCC3)c(=O)n(-c2ccccc2)n1C` the value was 1.59. In the case of `COc1ccc(C(=O)/C=C/Nc2cccc(O)c2)cc1`, the fold increase was found to be 2.03 and the viability was 99.5%. In the case of `O=C1c2ccccc2-c2onc3ccc(N4CCCC4)c1c23`, the fold increase was found to be 3.64 and the viability worked out at 91.6%. The molecule `CC(=O)Nc1ccc(S(=O)(=O)Nc2nc3ccccc3nc2Nc2ccc3ccccc3c2)cc1` showed a fold increase of 1.45. In turn, `CC(C)OC(=O)c1c2c(n3ccccc13)C(=O)c1ccccc1C2=O` registered a fold increase of 3.74. As to `O=C(Nc1ccccc1)C1CC(=O)n2ncnc2N1` (stereo not drawn), the fold increase came to 1.39 and the viability is 103%. Molecule `S=c1[nH]nc(-c2ccc(Br)cc2)n1-c1ccc2c(c1)OCCO2` displayed a fold increase of 1.32. In the case of `CCOC(=O)c1c(C)oc2c1c(C=NCCO)c(O)c1ccccc12`, the fold increase turned out to be 1.34 and the viability amounted to 93.1%. The matching figures for `Cc1ccc(C(=O)N/C(=C\c2ccc(-c3ccc([N+](=O)[O-])cc3)o2)C(=O)NC2CCS(=O)(=O)C2)cc1` (stereo not drawn): 1.53 and 92.1%. Regarding `Cc1cc(=O)[nH]c(-n2nc(C)cc2C)n1`, the fold increase was 1.06. As to `CCCN(CCC)CC(O)Cn1cc(/C=C/C(=O)c2cccs2)c2ccccc21` (stereo not drawn), the fold increase worked out at 1.37 and the viability came out at 67.5%. As to `CC(C)c1ccc(NC(=O)CNS(=O)(=O)c2ccc(F)cc2)cc1`, the fold increase turned out to be 1.38 and the viability was found to be 93.3%. The matching figures for `COC(=O)c1sc2nc(CSc3ccc(Br)cc3)[nH]c(=O)c2c1C`: 1.66 and 97.8%. For `NCCc1nc(-c2ccccc2)cs1`, the fold increase came out at 1.82 and the viability came to 92.1%.

For the molecule `O=C(N/N=C/c1ccc[nH]1)c1ccccc1[N+](=O)[O-]`, the fold increase was 1.34 and the viability came out at 95%.

Usually viability stands for a read-out of living cells in per cent, often relative to untreated cells.
